Assay results: PubChem BioAssay AID1963576 (National Center for Advancing Translational Sciences (NCATS), 2024)
Hit rate of the full screen: of about 46,000 compounds, about 60 (0.1%) were called active. Another 3% or so got no clear call; they are omitted. Calls follow the shape of the dose curve; as a rule, active = well fitted inhibition curve with a large enough effect; inconclusive = small, poorly fitted or top-dose-only effect; inactive = no such curve, though single readings can be large or run the other way. Some of the results follow.

assay: Primary qHTS assay for Inhibitors of ovarian cancer metastasis using an organotypic tumor microenvironment (TME) model.; also: nearly all actives have a fitted effect of over 65% in size;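 as to activity change, negative = inhibition: plate controls were DMSO wells for no effect and tomatine positive control wells for full effect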; details: SKOV3ip1-GFP adhesion/invasion on 3D omental model, fluorescence; series mostly up to 45.8 µM; activity change, negative = inhibition: at the top concentration
Outline: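 qHTS, 4-pt dose (0.36-46 umol/L); SKOV3ip1-GFP, 1,200 cells/well, no FBS; primary omental fibroblast/mesothelial co-culture 48 h pre-grown; 2 h RT + 16 h 37 C; PBS wash, 4% PFA; GFP count 488/509 nm.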

SMILES | activity change, negative = inhibition | outcome
Cc1cc(C)cc(Nc2nc3ccccc3nc2-n2nc(C)cc2C)c1 | inactive: 4.71% | –
COC(=O)c1sc(-c2ccccc2)cc1NC(=O)Nc1ccccc1Cl | inactive: -20.9% | –
CCc1ccc(NC(=O)c2cc3c(COC(C)=O)cnc(C)c3oc2=O)cc1 | inactive: 1.11% | –
CCOc1ccc(NC(=O)CSc2ncnc3c2sc2ccccc23)cc1 | inactive: -7.01% | –
CCCCC(=O)Nc1cc(-c2nc3cccnc3s2)ccc1C | inactive: 0.621% | –
CCc1ccc(NC(=O)CSc2nc(C)c(C(=O)Nc3ccc(Cl)cc3)c(-c3ccc(OC)cc3)c2C#N)cc1 | inactive: 0.401% | –
Cc1ccc(C)c(NC(=O)CCCn2c(C)c3cnn(-c4ccccc4)c(=O)c3c2C)c1 | – | inactive
Cn1c(=O)oc2cc(S(=O)(=O)N3CCCC(C(=O)NCc4ccccc4Cl)C3)ccc21 (stereo not given) | inactive: -7.08% | –
COc1ccc(NC(=O)Cn2c(=O)oc3cc(Cl)ccc32)c(OC)c1 | inactive: -4.98% | –
CNC(=O)C1CCC(Cn2c(=O)c3sccc3n(CC(=O)NCc3ccc(C)cc3)c2=O)CC1 (stereo not given) | inactive: 0.487% | –
Cc1cc(C)c2c(n1)SCC(=O)N2CC(=O)Nc1ccccc1C | – | inactive
O=C(CSc1nc2c([nH]c3ccccc32)c(=O)n1-c1ccccc1)N1CCCc2ccccc21 | inactive: 4.61% | –
O=C(CSc1nc2c([nH]c3ccccc32)c(=O)n1-c1ccc(F)cc1)NCC1CCCO1 (stereo not given) | inactive: -0.621% | –
Cc1ccccc1C(=O)Nc1sc2c(c1C(=O)O)CCC(C(C)(C)C)C2 (stereo not given) | inactive: -6.31% | –
Cc1ccc(C2C(=O)N(C3CCCCCC3)CC(=O)N2C(C)C)cc1 (stereo not given) | – | inactive
COc1ccccc1N1CCN(S(=O)(=O)c2ccc(-c3ccno3)cc2OC)CC1 | – | inactive
O=C(NCc1ccc(Cl)cc1)c1cc2ccc3cccnc3c2[nH]1 | inactive: -7.7% | –
COc1cccc(-n2c(SCC(=O)Nc3cccc(C)c3)nc3c([nH]c4ccccc43)c2=O)c1 | – | inactive
CC(C)c1ccc(Cc2cn3cc(-c4cc5ccccc5oc4=O)nc3s2)cc1 | inactive: -25.6% | –
Cc1ccc(NC(=O)NCCOCCn2c(=O)oc3ccccc32)c(C)c1 | inactive: 2.46% | –
Cc1nc(N2CCCC2)ncc1C(=O)NCc1ccc(Cl)cc1 | inactive: 6.85% | –
CC1=C(c2ccc(F)cc2)S(=O)(=O)N=C1N1CCC(C(=O)NCCc2ccccc2)CC1 | inactive: -4.14% | –
COc1cccc(C(=O)c2cn(CC(=O)Nc3cc(Cl)c(OC)cc3OC)c3nc(C)ccc3c2=O)c1 | inactive: -3.18% | –
COc1ccc(NC(=O)Cn2nc3c(cc2=O)CCCC3)cc1Cl | inactive: -9.23% | –

SMILES | activity change, negative = inhibition | outcome
O=C(CSc1ccccc1)N1CCc2c([nH]c3ccccc23)C1c1ccc(Cl)cc1 (stereo not given) | – | inactive
Cc1cccc(S(=O)(=O)c2cn(C)c3cc(N4CCCCCC4)c(F)cc3c2=O)c1 | – | inactive
Cc1cccc(NC(=O)c2cc(CN3CCOCC3)on2)c1C | inactive: 7.12% | –
Cc1cccc(C)c1NC(=O)NCCCN1CCN(c2ccccc2)CC1 | inactive: -2.06% | –
CC(C)(C)c1ccc(C(=O)NNc2ncnc3c2cnn3-c2ccc(Cl)cc2)cc1 | inactive: 8.11% | –
Cc1ccc(C)c(NC(=O)C2CCN(c3ncnc4c3nc3n4CCCCC3)CC2)c1 | – | inactive
COc1cc(CN(C(=O)COc2ccc(Cl)cc2)c2ccccn2)cc(OC)c1OC | inactive: -1.71% | –
COc1ccc(OC)c(C2=NS(=O)(=O)N(C)C(C(=O)Nc3ccc(C(C)=O)cc3)=C2)c1 | inactive: -0.897% | –
CCOc1ccc(NC(=O)Cn2cc(S(=O)(=O)c3ccc(C)cc3)c(=O)c3cc(F)ccc32)cc1 | inactive: -3.29% | –
CC(=O)c1nn(-c2ccc(OC(F)(F)F)cc2)nc1Nc1ccc(Cl)cc1 | inactive: 6.27% | –
O=C(CN1C(=O)C2(SCC(=O)N2c2ccccc2)c2ccccc21)Nc1ccccc1C(F)(F)F (stereo not given) | – | inactive
CCc1ccc2occ(CC(=O)Nc3nnc(C)s3)c2c1 | inactive: 0.551% | –
O=C(CSc1nc2c([nH]c3ccccc32)c(=O)n1-c1ccccc1)NCc1ccc(F)cc1 | inactive: 6.16% | –
CCNC(=O)C1CCN(c2nc3ccccc3nc2C(F)(F)F)CC1 | – | inactive
CCc1ccccc1NC(=O)CC(C)S(=O)(=O)c1ccc2c(c1)NC(=O)CO2 (stereo not given) | inactive: 0.175% | –
Cc1ccc(CN2C(=O)C(O)(CC(=O)c3ccc(C)cc3)c3ccccc32)cc1 (stereo not given) | – | inactive
COc1ccc(C(=O)c2cnc3ccc(C)cc3c2S(=O)(=O)c2ccccc2)cc1 | inactive: -5.14% | –
COc1ccc(S(=O)(=O)N2CCC(C(=O)NC(C)c3ccccc3)CC2)cc1 (stereo not given) | inactive: 1.85% | –
O=C(Nc1ccc(Br)cc1)c1cc2nc(-c3ccccc3)cc(-c3ccccc3)n2n1 | inactive: 3.87% | –
COc1ccc2[nH]cc(CCN=C(NC(=O)c3cccc(Cl)c3)Nc3nc(C)cc(C)n3)c2c1 | inactive: 7.42% | –
CCOc1ccc(-c2nnc(SCC(=O)NCc3ccc(Cl)cc3)o2)cc1 | inactive: -2.02% | –
CC(O)=C(C#N)C(=O)Nc1ccc(C(F)(F)F)cc1 | inactive: 3.12% | –
COc1ccc(C(=O)N2CCC(c3nc4ccccc4s3)CC2)cc1Cl | inactive: -11.8% | –
Cc1cc(NC(=O)Nc2nnc(N(C)C3CCCCC3)s2)ccc1Br | inactive: 5.36% | –

SMILES | activity change, negative = inhibition | outcome
CCc1ccc(NCc2cc3cc4c(cc3n(CC(=O)Nc3ccccc3OC)c2=O)OCCO4)cc1 | inactive: -1.89% | –
Cc1ccc2oc(C(=O)Nc3ccc(S(=O)(=O)N(C)c4ccccc4)cc3)cc(=O)c2c1 | – | inactive
Cc1cc(=O)c2cc(C(=O)Nc3ccc(C)c(C)c3)ccc2[nH]1 | inactive: 12.3% | –
COc1ccccc1NC(=O)CSc1nnc(NC(=O)NC2CCCCC2)s1 | inactive: 3.45% | –
Cc1ccc(CNC(=O)C2CCN(S(=O)(=O)c3cccc4nonc34)CC2)cc1 | – | inactive
COc1ccccc1/C=C/c1nc(C#N)c(N2CCN(C)CC2)o1 | inactive: 1.27% | –
Cc1nn(-c2ccccc2)c2c1cc1c(=O)[nH]c(=O)nc-1n2-c1cccc(Cl)c1 | inactive: 17.8% | –
COc1cc(Cl)c(C)cc1NC(=O)CSc1nc2c(c(=O)[nH]1)CCC2 | inactive: -0.955% | –
CCC(Sc1nc2ccncc2[nH]1)C(=O)Nc1cc(Cl)ccc1C (stereo not given) | inactive: -5.3% | –
O=C(c1ccc2c(c1)N(Cc1ccccc1F)C(=O)c1ccccc1S2(=O)=O)N1CCc2ccccc21 | – | inactive
CCc1ccccc1NC(=O)Cn1c(=O)n(CCCCCC(=O)NCc2ccc(C)cc2)c(=O)c2sccc21 | – | inactive
Cc1ccc(S(=O)(=O)CCC(=O)Nc2ccc(OC(F)(F)F)cc2)cc1 | – | inactive
Cc1cccc(NC(=O)Cn2ncc3c4ccccc4n(Cc4ccccc4)c3c2=O)c1C | inactive: 3.88% | –
CCc1c2c(nc3ccc(O)cc13)-c1cc3c(c(=O)n1C2)COC(=O)[C@]3(O)CC | inactive: 15.1% | –
CCOC(=O)c1cccc(NC(=O)CC2C(=O)N(c3ccc(Cl)cc3)C(=O)N2C2CCCC2)c1 (stereo not given) | inactive: -2.72% | –
CCc1ccc(S(=O)(=O)c2nnn3c2nc(N2CCOCC2)c2sccc23)cc1 | inactive: -5.26% | –
Cc1cc(Br)ccc1NC(=O)C1CCCN(S(=O)(=O)c2cccc3nonc23)C1 (stereo not given) | – | inactive
Cc1cc(-c2ccccc2)n2nc(-c3ccc(Cl)cc3)cc2n1 | inactive: -3.2% | –
Cc1cc(N2CCC(C(=O)Nc3ccc(F)cc3C)CC2)n2nc(C)c(-c3ccc(Cl)cc3)c2n1 | – | inactive
Cc1ccc(N2CC(c3nc(-c4ccc(Cl)cc4)no3)CC2=O)cc1F (stereo not given) | inactive: -1.32% | –
COc1cc(Cl)c(NC(=O)c2cc(S(=O)(=O)N3CCCCC3)c[nH]2)c(OC)c1 | – | inactive
Cc1sc2c(c1C)c(=O)n(-c1ccc(Cl)cc1)c(=O)n2Cc1cc(=O)n2cc(Br)ccc2n1 | inactive: -14.9% | –
COc1ccc(NC(=O)CSc2oc(-c3ccc(F)cc3)nc2S(=O)(=O)c2ccc(C)cc2)c(OC)c1 | inactive: -0.489% | –
CC(=O)c1cccc(NS(=O)(=O)c2cc(-c3onc(C)c3C)ccc2C)c1 | inactive: -4.85% | –

SMILES | activity change, negative = inhibition | outcome
CCc1cc2c(cc1N1CCC(N3CCOCC3)CC1)C(C)(C)c1[nH]c3cc(C#N)ccc3c1C2=O | inactive: -3.4% | –
COc1ccc2cc3cc(C(=O)Nc4cc(C)c(Cl)cc4OC)oc3nc2c1 | inactive: 13.3% | –
CCc1cccc(CC)c1NC(=O)C1CCC(CNS(=O)(=O)c2cccc3nsnc23)CC1 (stereo not given) | inactive: -14.1% | –
CCOC(=O)c1c(S(=O)(=O)N2CCCC(C(=O)NCc3ccccc3Cl)C2)c(C)n(C)c1C (stereo not given) | – | inactive
COc1cc(NC(=O)C2CCN(S(=O)(=O)c3ccc4c(c3)CCCC(=O)N4)CC2)cc(OC)c1 | inactive: -9.17% | –
CCOc1ccccc1NC(=O)CSc1nc2c(sc3ccccc32)c(=O)n1CCCC(=O)NC1CCCC1 | inactive: -13.5% | –
Cc1cccc(N2CCN(C(=O)c3cnn(-c4ccccc4Cl)c3C3CCN(C(=O)OC(C)(C)C)CC3)CC2C)c1 (stereo not given) | inactive: -5.82% | –
Cc1cccc(OCc2nc(CC(=O)Nc3ccc(C)cc3C)cs2)c1 | inactive: -12.6% | –
O=C(Nc1ccccc1)N(Cc1c[nH]c2ccccc12)C1CCCCCC1 | – | inactive
CCN(c1ccccc1)S(=O)(=O)c1nnc(NC(=O)c2ccccc2)s1 | – | inactive
COc1cccc(CNC(=O)c2ccc(CNS(=O)(=O)c3ccc(C)cc3)cc2)c1 | inactive: -9.68% | –
O=C(Nc1ccccc1C(F)(F)F)c1cc(-c2ccc3c(c2)OCCO3)on1 | inactive: 1.59% | –
CCN(CC)CCNC(=O)C(=O)NCC(c1cccnc1)N1CCN(c2ccc(F)cc2)CC1 (stereo not given) | inactive: 7.23% | –
COc1ccc(-c2cc(C(=O)NC(C)c3ccccc3)c3cc(C(C)C)ccc3n2)cc1 (stereo not given) | inactive: -6.02% | –
Cc1ccc(CNC(=O)Cn2c(=O)ccc3cc(S(=O)(=O)N4CCC(C)CC4)ccc32)cc1 | inactive: 14.9% | –
CCOC(=O)c1c(NC(=O)c2cc(OCC)c(OCC)c(OCC)c2)sc2c1CCCCC2 | inactive: 3.76% | –
COc1ccc(CNCCCSc2nnnn2-c2ccccc2)cc1 | inactive: 0.533% | –
CC1CCc2c(sc3nnn(CCCCOc4ccc(Cl)cc4)c(=O)c23)C1 (stereo not given) | inactive: -7.96% | –
CCc1ccc(C2c3c(oc4ccc(F)cc4c3=O)C(=O)N2CCc2ccc(OC)cc2)cc1 (stereo not given) | inactive: 1.56% | –
COc1ccc(S(=O)(=O)NCCc2sc(-c3cccnc3)nc2C)c(F)c1 | – | inactive
Cc1cc(=O)[nH]c2nnc(SCc3c(F)cccc3Cl)n12 | inactive: 6.03% | –
Cc1ccc(C2CCN(C(=O)Nc3ccc(Cl)cc3)C2)cc1 (stereo not given) | inactive: 9.21% | –
Cc1nc2sccn2c(=O)c1S(=O)(=O)Nc1ccc(N2CCOCC2)cc1 | inactive: 9.43% | –
